The supplement of paper PMC11417369
This is one part of the list.

What follows are sequences tested on PF3D7_0420300 AP2 domain 1 (GST-tagged) (assay: gcPBM binding intensity (ln(normalized median fluorescence intensity)); higher = stronger DNA binding).
Procedure, shortened: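 DNA-binding domains from P. falciparum, fused to GST and produced in E. coli, were put on an Agilent 4 × 180k double-stranded probe array for 1 h in 1× PBS holding 1% milk, 0.2 mg/ml BSA, 0.5% salmon testes DNA and 0.03% Triton X-100. Probes were primer-extended, 36 bp long and drawn from intergenic genomic regions, with negative controls included. After Alexa488 anti-GST antibody detection and a 488 nm scan, binding intensity was set as the highest Masliner-normalised natural-log median intensity across replicate spots of either probe orientation.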

Row | Sequence | gcPBM binding intensity (ln)
1 | ATAATATGTAATATTACACACAATTCATCATTTTTT [CACACA_site3159] | 9.51
2 | ATATACACCGTTGAATGTACATAAATAATATTAATA [XGTACX_site2893] | 9.33
3 | AAGTATTATTTTTATGCATGTGAAGTGCAAAATAAA [TGCATGCA_site198] | 8.83
4 | AGTACATTTTTTTTAATAGGAAAAAAAATATTTATT [TGCATGCA_negctrl_site575] | 8.87
5 | ATATAATATATATGGTGTACATTTTTTAGTGCTATT [XGTACX_site1662] | 9.52
6 | TAAAAGAATAAAAGTAGTACTTTTTTTTATATTAGA [XGTACX_site368] | 8.84
7 | AAAAAGTGACTCCTTACACACTTTACATAATTTAGT [CACACA_site4606] | 9.46
8 | ATATTTTTATATTAGTGTACTTATTATAATGTATAG [XGTACX_site8185] | 9.24
9 | TCTTTTTTTTTTTATTGTACAAGAAAAGGAAAAAAT [XGTACX_site3717] | 8.78
10 | AACAAAAATGAAAAAACACACATAACATATATAAAT [CACACA_site740] | 9.97
11 | AAAAAAAAAAAAAAAGTGCACTGAAAATATATTGAA [GTGCAC_site9395] | 9.28
12 | TTTTTAATTATTTATATAACGATAATCCTTACATAA [TGCATGCA_negctrl_site180] | 8.84
13 | ATAATATAAATAAAAACACACACAATCGTACATATA [CACACA_site9223] | 10
14 | ATATAATATATGTAAGTGCGCTTATAAATAAAACGA [GTGCAC_site9841] | 9.36
15 | ATATATTGATATATGTGTACATAGCTTATTTCATTT [XGTACX_site1800] | 9.41
16 | TATATAGAAAACAAGGCATGCAAATAACAAATTGTG [TGCATGCA_site473] | 9.77
17 | TTTTAAAATTTTTTTTTTTTTTTTTTATGAACAAGT [GTGCAC_negctrl_site124] | 8.71
18 | TTTTAAAGAAAATATTTTATCATTATTTTTTGTACT [CACACA_negctrl_site1648] | 9.1
19 | AATATTTTAAATATTGCATGCAATGAAAAATGTAAA [TGCATGCA_site139] | 9.07
20 | TCTTATTTTTTTATATATACAAAGTTTTATATATAT [GTGCAC_negctrl_site314] | 9.31
21 | GTTCAATCGGGTGTTACTTCAAACAAGGAACAACAA [TGCATGCA_negctrl_site471] | 9.14
22 | ATAGTAAATATAAAAAGTACTGATTCTTAAATTGTT [XGTACX_site5972] | 9.32

Row | Sequence | gcPBM binding intensity (ln)
23 | TATTTTATTGTTGTTATACACACCATATAAAATATT [CACACA_site1630] | 9.32
24 | ACTTGACACCAACACACACACATATATAAAAAAAAA [CACACA_site756] | 9.87
25 | ATATATCACAATAAAATTTATAGAATTTTAAATAAG [TGCATGCA_negctrl_site437] | 8.92
26 | AAAATAAAATAAAATACACACATACATACATACAAA [CACACA_site5366] | 9.95
27 | CAATAAAGAGGGAATTGTACTTTAAATATCCCTCTT [XGTACX_site1991] | 9.01
28 | AATAGAACAAATAAAACACACACATATATATATATA [CACACA_site8893] | 9.71
29 | AATATATTTCGAGATACACACATATATAAAAAAAAA [CACACA_site3398] | 9.57
30 | AAAAAAAAAAAAAAGACACACAATGTGAAATAATAA [CACACA_site804] | 9.45
31 | ATAAAAATTAAAAGGAGTACTTAAATATTAAGATGG [XGTACX_site4815] | 9.18
32 | TTTAAAAATATATATTGTACATATATATATCTATGA [XGTACX_site3556] | 9
33 | TACTATTTAAAATTTGAACACACATTATTTATTTTA [CACACA_site9020] | 9.23
34 | TTTATTTAAAAAATAAAAAAAAAAAAAAAAAAAAAA [CACACA_negctrl_site1670] | 8.27
35 | TATACAATATATATAACACACATATTTATATAAAAT [CACACA_site5061] | 9.57
36 | AACATAAAAATTGAAGCACACACACTAATGAAATAC [CACACA_site8287] | 10.2
37 | ACAAATCTATAAGAGTGTACGAACAGTAAAGGAATT [XGTACX_site2070] | 9.49
38 | AAAATACCATTTGAAACACACAAAAAAAAAAAAAAT [CACACA_site2981] | 9.69
39 | CAGTTGGAAGGAAAGTGTACATAAAAAAAAATATAA [XGTACX_site8784] | 9.09
40 | TATTTTCTCGTTTGCATGCACCTTATTTTATGTGGT [GTGCAC_site9470] | 9.41
41 | TAAAATTTGCGATGCACACAGAATAGCTAATATGAC [CACACA_site2995] | 9.62
42 | ATATTATATATATACACACACACATGCATGCACATA [CACACA_site7917] | 10.1
43 | AAATTCTGCATCGAGGTGCGCCATAAAAATTGTGGT | 9.18
44 | TACTAAAACCCATACACACACATATTTATAGTACCA [CACACA_site7484] | 9.97

Row | Sequence | gcPBM binding intensity (ln)
45 | AGTTATTTTAAATGTAGTACACAAAAGAAATATTAA [XGTACX_site4092] | 9.18
46 | CATAAATTAAAACACACACACACAAAAAAAAAAAAA [CACACA_site2262] | 10.1
47 | CGGCTATTTCTATATACATGCATTTAAAAAAAAAAT [TGCATGCA_site354] | 8.94
48 | TATATATCTGTGAAAATACTTAAATTGTTATAAAAA [CACACA_negctrl_site1109] | 8.98
49 | AAAAAAAAAATGAGCACACATAAATAAAAACAAACA [CACACA_site1573] | 9.87
50 | ACCTATTTCAAACACACACACACACTAACAAACATA [CACACA_site8233] | 10.3
51 | AAAACATCAAAAATGTGTACATATATATATATATAT [XGTACX_site8884] | 9.11
52 | ATATATATATATGCATGTACATATTTATCTTTATAT [XGTACX_site232] | 9.25
53 | AACATATATTAGCTTACATGCAAAAAGTAAAAAAAT [TGCATGCA_site10] | 9.29
54 | AATTTAAAACGGAGATGTACATATATAAATATATAC [XGTACX_site3723] | 9.37
55 | TTTTTAATATATATCACACATATATATTTTTAATTA [CACACA_site6099] | 9.14
56 | ATAAAAATCTTTAGTAGTACATTATAAAAAACTATT [XGTACX_site5531] | 9.09
57 | ATGTGAACATTCAATGCACACGATGTAATTATACAT [CACACA_site15] | 9.25
58 | CTAATCGTGCACAACTGTACATTTGTCAAGGGCAAT [XGTACX_site8662] | 9.15
59 | TTATGGTGCATGAAATCACACATTGATATATATGCT [CACACA_site5352] | 9.15
60 | ACATTTAAATAATATGTGCACAGCTATATTTTCTTT [GTGCAC_site9562] | 9.21
61 | ATATATATATATATATGTACATATATATATTATATT [XGTACX_site6303] | 9.12
62 | GTGTCTTTTATTAAATGTACATATTCATAGATAAAA [XGTACX_site8578] | 8.99
63 | TTATTTTTTTGGAATTCACACACAAAAAAAAAAATA [CACACA_site8650] | 9.33
64 | ACCTTAAAAATAACTGCACACAAAAATAAATACCTT [CACACA_site8902] | 9.71
65 | ACGTAAACATGTAGAAGGCATTACACAATGGTATAC [TGCATGCA_negctrl_site512] | 9.41
66 | TAGAATGAAAAAAAAGCATGCGGGCAAAAATTTTTA [TGCATGCA_site926] | 9.28

Row | Sequence | gcPBM binding intensity (ln)
67 | AATTGAGAAGTGTGTTGTACATAATGGCACATACCT [XGTACX_site1370] | 9.4
68 | TAATATGTTTATGGTAACATACAAAAATGTATATAT [GTGCAC_negctrl_site204] | 9.04
69 | TATTTTTTATTTTAAATCCTCTGATATTTAATTTGT [TGCATGCA_negctrl_site84] | 9.16
70 | TATCCCCTTGTCCATATTAATTGTGACATCATATAT [XGTACX_negctrl_site9] | 9.41
71 | ATGTGTATATATATGTGTACATAATTTGTGTTATTC [XGTACX_site2509] | 9.5
72 | AAGGTATAATATATTTGTACATATACATTTTTGAAT [XGTACX_site6493] | 9.18
73 | TGAAAAATGTAATGCTCACACATATATATATATATA [CACACA_site5213] | 9.24
74 | GATTTTAATGGGTGTACACATTTATTTATATAAAGT [CACACA_site5317] | 9.18
75 | ATATATTATGGGTGTGCACACAATATTTATATGTTC [CACACA_site2270] | 9.67
76 | TTATAATAAATATATAAAAAAAAAAAAAAAAAAAAA [CACACA_negctrl_site1639] | 8.42
77 | TTTTCTTATAAATGAAGTACAAAAAAAAAATATATA [XGTACX_site1352] | 9.03
78 | TGATAGCACCTTATATGTACATATAATATATTATTA [XGTACX_site837] | 9.35
79 | ACATATATGGAGCTTATACACACTTTTATATTTTAA [CACACA_site3854] | 9.35
80 | TTTTAAATATGCCATACACACTACTCTATAATAAAT [CACACA_site6987] | 9.43
81 | TTATCATATAATTATTGTACTAAAAAAAAAGCGAGT [XGTACX_site3086] | 9.31
82 | TATATATATATGTGTACACATGTCGCATTTTTTTAT [CACACA_site4648] | 9.62
83 | GATATTATAAAATAAAAATAAATCATTTCTATTCAT [CACACA_negctrl_site334] | 8.92
84 | TTATGTGTATAGGTTTGTACATAAAATGATGTATAG [XGTACX_site1401] | 9.18
85 | TCATGGAATATTTAAAGTACAAAAAGTGTTCTTTAC [XGTACX_site715] | 8.99
86 | TAGTCATATATATATGTACACACATATATATATTTA [CACACA_site8413] | 9.38
87 | ATTTATTTTGTTGTTGTTTTTATTTGATTGTTTTAT [CACACA_negctrl_site1275] | 9.84
88 | TTATGGTGCAACATTATGCACACCGTTAAATAACTA [CACACA_site3846] | 9.08
